Reference: the supplement of paper PMC9446081
Out of some 39,000 compounds screened, about 220 (0.56%) showed activity. Some of the results follow.

Tested on: Escherichia coli K-12 BW25113
Test: relative growth (OD600 normalised to plate interquartile mean) (fraction); higher = less growth inhibition, active = 0.2 or less
Conditions: 50 µM; LB; incubation time: overnight (16-24 h)
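Also: static incubation at 37 °C against the wild-type strain, values averaged over two biological replicates.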

Compound | relative growth
C[C@H]1CN([C@@H](C)CO)C(=O)c2cc(NC(=O)Cn3cnnn3)ccc2O[C@@H]1CN(C)S(=O)(=O)c1cn(C)cn1 | inactive: 1
Cc1csc(S(=O)(=O)N(CC(C)C)c2cc3c(cc2OCc2ccc(C(=O)O)cc2)CCC3)n1 | inactive: 1.01
C[C@H]1CN([C@@H](C)CO)S(=O)(=O)c2ccc(-c3ccncc3)cc2O[C@H]1CN(C)C(=O)c1cccc(F)c1 | inactive: 1
C[C@H](CO)N1C[C@H](C)[C@@H](CN(C)C(=O)Nc2ccc3c(c2)OCO3)Oc2ccc(NC(=O)C3CC3)cc2C1=O | inactive: 0.988
C[C@@H]1CN([C@@H](C)CO)C(=O)c2cccc(NS(C)(=O)=O)c2O[C@H]1CN(C)S(=O)(=O)c1ccc(Cl)cc1 | inactive: 1
C[C@H]1CN([C@@H](C)CO)C(=O)c2cccc(NC(=O)Nc3ccc(F)cc3)c2O[C@H]1CN(C)C(=O)Nc1ccc(C(F)(F)F)cc1 | inactive: 0.982
[O-][NH2+]N1CCCCC1 | inactive: 1.01
C[C@H]1CCCCO[C@H](CN(C)C(=O)Nc2cccc3ccccc23)[C@@H](C)CN([C@@H](C)CO)C(=O)c2cc(NC(=O)C3CCCCC3)ccc2O1 | inactive: 1.02
C[C@H]1CN([C@@H](C)CO)C(=O)c2cc(NS(=O)(=O)c3cn(C)cn3)ccc2O[C@@H]1CN(C)C(=O)Nc1ccccc1 | inactive: 1
C[C@@H]1CCCCO[C@H](CN(C)S(=O)(=O)c2cccs2)[C@H](C)CN([C@@H](C)CO)C(=O)c2cc(NS(=O)(=O)c3cn(C)cn3)ccc2O1 | inactive: 1.01
C[C@@H]1CCCCO[C@@H](CN(C)C(=O)Nc2cccc3ccccc23)[C@H](C)CN([C@H](C)CO)C(=O)c2cc(NS(C)(=O)=O)ccc2O1 | inactive: 1.04
Cc1cccc(N2CCC(N)CC2)c1 | inactive: 0.981
COc1ccc(CN(C)C[C@@H]2Oc3c(NS(=O)(=O)c4cn(C)cn4)cccc3C(=O)N([C@H](C)CO)C[C@H]2C)cc1 | inactive: 0.993
C[C@H]1COC(=O)[C@@H](NC(=O)OCC2c3ccccc3-c3ccccc32)CC=CC[C@@H](CC(=O)NCCO)C(=O)N1 | inactive: 1.01
COc1cccc(S(=O)(=O)N(C)C[C@H]2Oc3ncc(Br)cc3C(=O)N([C@H](C)CO)C[C@H]2C)c1 | inactive: 0.99
C[C@@H]1CCCCO[C@@H](CN(C)Cc2ccccc2)[C@@H](C)CN([C@H](C)CO)C(=O)c2cc(NC(=O)c3ccncc3)ccc2O1 | inactive: 1.01
COc1ccccc1NC(=O)N(C)C[C@H]1Oc2ncc(C#CCN(C)C)cc2C(=O)N([C@H](C)CO)C[C@H]1C | inactive: 0.992
C[C@H](CO)N1C[C@H](C)[C@H](CN(C)Cc2ccc(Cl)c(Cl)c2)Oc2c(NC(=O)C3CCCCC3)cccc2C1=O | inactive: 1.01
COc1ccc(S(=O)(=O)N(C)C[C@@H]2OCCCC[C@@H](C)Oc3ccc(NC(=O)c4ccccc4)cc3C(=O)N([C@@H](C)CO)C[C@@H]2C)cc1 | inactive: 1.03
COc1ccc(S(=O)(=O)N(C)C[C@H]2Oc3ccc(NS(=O)(=O)c4ccc(C)cc4)cc3CC(=O)N([C@H](C)CO)C[C@@H]2C)cc1 | inactive: 1.03
Cc1ccc(S(=O)(=O)Nc2ccc3c(c2)CC(=O)N([C@@H](C)CO)C[C@H](C)[C@H](CN(C)CC2CC2)O3)cc1 | inactive: 0.965

Compound | relative growth
COc1ccc(S(=O)(=O)N[C@@H]2C=C[C@@H](CC(=O)N3CCC(Cc4ccccc4)CC3)O[C@@H]2CO)cc1 | inactive: 1
CC(C)NC(=O)N(C)C[C@@H]1Oc2ccc(NC(=O)C3CCCCC3)cc2CC(=O)N([C@H](C)CO)C[C@H]1C | inactive: 0.994
C[C@@H]1CN([C@@H](C)CO)C(=O)CCCn2nncc2CO[C@H]1CN(C)C(=O)Nc1ccc(C(F)(F)F)cc1 | inactive: 0.929
CC(=O)n1cc([C@H]2C=C(C(=O)N3CCOCC3)O[C@@H](OCCCCOC(=O)NCCCCCC(=O)NO)C2)c2ccccc21 | inactive: 0.99
C[C@@H]1CCCCO[C@H](CN(C)C(=O)Cc2ccccc2)[C@@H](C)CN([C@@H](C)CO)C(=O)c2cc(NC(=O)Nc3ccc(C(F)(F)F)cc3)ccc2O1 | inactive: 1.03
COc1ccc(S(=O)(=O)Nc2ccc3c(c2)CC(=O)N([C@@H](C)CO)C[C@@H](C)[C@H](CN(C)S(=O)(=O)c2ccc(C)cc2)O3)cc1 | inactive: 1.05
Cc1noc(C)c1NC(=O)N(C)C[C@H]1Oc2ccc(NS(=O)(=O)c3cn(C)cn3)cc2C(=O)N([C@H](C)CO)C[C@@H]1C | inactive: 0.994
CCCCc1cn(C[C@H](Cc2ccccc2)NC(=O)N[C@H](CO)CCc2oc(C(C)=O)c(C(=O)OC)c2C(=O)OC)nn1 | inactive: 1.02
N[C@@H]1CCCN(Cc2ccncc2)[C@H]1c1ccccc1F | inactive: 1.01
COc1ccc(NC(=O)Nc2ccc3c(c2)C(=O)N([C@@H](C)CO)C[C@H](C)[C@H](CN(C)C(=O)c2ccccc2)OCCCC[C@@H](C)O3)cc1 | inactive: 1.01
C[C@@H](NC(=O)c1ccnn1C)[C@H]1CCCO1 | inactive: 0.992
COc1ccc(NC(=O)Nc2ccc3c(c2)C(=O)N([C@H](C)CO)C[C@H](C)[C@H](CN(C)Cc2ccc(C(F)(F)F)cc2)O3)cc1 | inactive: 1
O=C1CCCNCC1 | inactive: 0.984
C[C@@H]1CN([C@H](C)CO)C(=O)c2cc(C#Cc3ccccn3)cnc2O[C@H]1CN(C)C(=O)CCN1CCCCC1 | inactive: 0.993
Cc1cc(C(=O)Nc2cccc3c2O[C@@H](CN(C)Cc2ccc4c(c2)OCO4)[C@@H](C)CN([C@H](C)CO)C3=O)n(C)n1 | inactive: 0.997
C[C@@H]1CN([C@H](C)CO)C(=O)c2cc(NS(=O)(=O)c3ccccc3)ccc2O[C@@H](C)CCCCO[C@@H]1CN(C)Cc1ccc(Cl)c(Cl)c1 | inactive: 1.02
COc1ccc(NC(=O)N(C)C[C@H]2Oc3c(NC(=O)c4cnccn4)cccc3C(=O)N([C@H](C)CO)C[C@H]2C)cc1 | inactive: 0.983
C[C@H](CO)N1C[C@H](C)[C@@H](CN(C)C(=O)Nc2cccc3ccccc23)Oc2ccc(NC(=O)NC3CCCCC3)cc2CC1=O | inactive: 1.01
O=C(C[C@H]1CC[C@@H](NC(=O)Cc2ccccn2)[C@H](CO)O1)NCCCN1CCOCC1 | inactive: 0.98
O=C(C[C@H]1CC[C@@H](NC(=O)Cc2ccccn2)[C@@H](CO)O1)NCCc1ccncc1 | inactive: 1.02
CC/N=c1\sc(C(=O)OC)cc(=O)n1CC | inactive: 1.04

Compound | relative growth
C[C@H](CO)N1C[C@H](C)[C@H](CN(C)S(=O)(=O)c2cccs2)OCCCC[C@H](C)Oc2ccc(NS(=O)(=O)c3cn(C)cn3)cc2C1=O | inactive: 0.897
C[C@H](CO)N1C[C@H](C)[C@H](CN(C)C(=O)Nc2cccc3ccccc23)OCc2cn(nn2)CCCC1=O | inactive: 1
COC(=O)c1cccc(OC(N)=O)c1 | inactive: 0.994
COc1ccc(S(=O)(=O)Nc2ccc3c(c2)C(=O)N([C@H](C)CO)C[C@@H](C)[C@H](CN(C)C(=O)Nc2ccc(C(F)(F)F)cc2)OCCCC[C@@H](C)O3)cc1 | inactive: 0.859
COCCOC(=O)N1C(=O)[C@@]2(c3ccccc31)[C@H](c1ccc(OCCO)cc1)N1[C@H](c3ccccc3)[C@H](c3ccccc3)OC(=O)[C@H]1[C@@H]2C(=O)N1CCCCCCC1 | inactive: 1.07
C[C@@H]1CCCCO[C@H](CN(C)C(=O)Nc2ccc(C(F)(F)F)cc2)[C@@H](C)CN([C@@H](C)CO)C(=O)c2cc(NS(=O)(=O)c3cccs3)ccc2O1 | inactive: 0.988
CC(C)NC(=O)N(C)C[C@H]1Oc2ccc(NS(=O)(=O)c3ccc(F)cc3)cc2C(=O)N([C@H](C)CO)C[C@H]1C | inactive: 1.02
CCS(=O)(=O)N1CC[C@]2(CC1)CN([C@H](CO)c1[nH]c3cc(ccc3c12)OC)S(=O)(=O)c1ccc(cc1)C | inactive: 1.04
COc1ccc(CN(C)C[C@@H]2OCCCC[C@H](C)Oc3ccc(NC(=O)C4CCCCC4)cc3C(=O)N([C@@H](C)CO)C[C@@H]2C)cc1 | inactive: 0.996
C[C@H](CO)N1C[C@H](C)[C@H](CN(C)S(=O)(=O)c2cccc(F)c2)Oc2ncc(C#Cc3ccccc3)cc2C1=O | inactive: 0.869
C[C@H](CO)N1C[C@H](C)[C@H](CN(C)C(=O)Nc2cccc3ccccc23)Oc2ccc(NS(=O)(=O)c3ccccc3)cc2C1=O | inactive: 1.02
COc1ccc(CN(C)C[C@@H]2Oc3ccc(NC(=O)Cn4cnnn4)cc3C(=O)N([C@H](C)CO)C[C@@H]2C)cc1 | inactive: 1.03
COc1ccc(NC(=O)Nc2ccc3c(c2)CC(=O)N([C@H](C)CO)C[C@@H](C)[C@@H](CN(C)Cc2ccc(-c4ccccc4)cc2)O3)cc1 | inactive: 1.02
CNCCCN1c2ccccc2CCc2ccccc21.Cl | inactive: 0.982
COc1ccc(S(=O)(=O)N(C)C[C@H]2Oc3cc(Br)ccc3S(=O)(=O)N([C@H](C)CO)C[C@H]2C)cc1 | inactive: 1
C[C@@H]1CNC(=O)CCO1 | inactive: 0.998
CC(C)CC#Cc1ccc2c(c1)O[C@H](CN(C)C(=O)c1ccccn1)[C@@H](C)CN([C@H](C)CO)S2(=O)=O | inactive: 0.992
CC(C)C#Cc1ccc2c(c1)O[C@H](CN(C)C(=O)c1cnccn1)[C@@H](C)CN([C@@H](C)CO)S2(=O)=O | inactive: 0.991
C[C@@H]1CN([C@@H](C)CO)S(=O)(=O)c2ccc(C#C[C@@H](C)O)cc2O[C@H]1CN(C)C(=O)c1ccncc1 | inactive: 0.996
